Data: the supplement of paper PMC12632987
The full ranking holds about 4,500 sequences; the median of “median log2 fold change of GCK-ALFA target abundance (FLAG IP / Myc IP barcode read proportion)” is about 0.078, and the lowest 2% start at about -0.6. This is one part of the list.

B1: GBRAP_117_2582 (protein)
chain: EEEKEKVKKELRETIRRAGERVKEAEKLSEEEREKVLKEVREEIREAVERALEVLSEEEVLEIVEEELLSFDAKTYFEISSFVEEAIQEIRERRREEEEK
B2: GBRAP_52_6028 (protein)
chain: MREELEAAVREILALVRAGKLEEARAAARELVASLNEEEVELLIEEVARLAAAARPEDLDAVWRLAEIIAEALEEAGVDEVLADDLLARTAAALYEAEQR
B3: GBRAP_166_4933 (protein)
chain: DLEEIKKEVKEKVVELAKKAAELDLEGQIEVALEIRELLEEAKEKGLSKEELKEILSEAISTLKDNPELALQLLRYIEAATDMDEELIDVIDEVREEFLK
B4: GBRAP_9_7125 (protein)
chain: KEELIRKLAEVARDMVEDISKAVPELTEEMKEEFLERIEELEKEALEDKSLTPEEIAERFKELVEEIEEEVKKIVNEELKKIVEAIALTALEEIDEIVEE
B5: GBRAP_160_4024 (protein)
chain: SASVAAIVADFREDLELILAHAAEMDEATIAGALRTAVGRAIMDVAEDPNHRDWTREEVDALDALADETAATLATGDPAAARAAVAALAAAVAAAVEKAA
B6: GBRAP_26_5428 (protein)
chain: VEEYFKEMIDKIEAAADELLDPDLAAAAKTIAATLLEEVLEKVEEENLSIEEIKKLLEEAVKELAEELKELGVDEETIEKLTKVAEEAAKETVEKIKKSS
B7: GBRAP_137_3656 (protein)
chain: GTVEIDATIDGDFAEVVIKASTKEIAEEAADIAAAVADETGVAYAIHLDLEEKTVTIDLLGPREQLDAFLDRLVARLAAKYNVRFTRTVDGETTEETLER
B8: GBRAP_125_3061 (protein)
chain: SKEEDIANLELLARALGYSEDDIAELRELARAGSIKNTLIAIALAEGDEELADAIEKLTEEEVKAVLAEVAAEIAANPDLTPEQVRALLLEVARRALAAS
B9: GBRAP_160_4796 (protein)
chain: SERVEKVAEIFREAAEEALKMAEGETHEERVNIFDVELGSAIMEAIEEGLLNDEEEDVAIEVRDELIAALRANPDLTPEEIRALAEEAVERLRKRLEELA
B10: GBRAP_160_4550 (protein)
chain: SETVEKLVKFAREETEEALELAREVNWEDAVNVLAVAWGQVLMEAVEDERATDEMEDAVADVGDELVAEFKKLKDASWEEIEALAKEKLKELEERLKELA
B11: GBRAP_52_5969 (protein)
chain: MRERAEELAKELVELKKKGDEEGLEEKAREIARTLNDEELRLLAEALAEMVKEGDLETAEIALEVAIVLADELEREGRDPRIASDILGTVTTAAYELEQK
B12: GBRAP_78_6701 (protein)
chain: KVEELIDEAIEKLLEASRLASQLPLEQSTEVLDLLVDALTDLEEAEEEGFDLEKLKRAKEHVEKALELAKKLKTPQAKKLAEELEKALELLEKAIEEIEK
B13: GBRAP_128_3581 (protein)
chain: SVEEAKKYTIEKLEAIKKAGPEERKKLAKELAERFASLSKEEQEAAADTIIELLPELSAEDLRALAEALRAADTSDNPLKTNLAAEVEVEALNKEEEEEE
B14: GBRAP_80_6838 (protein)
chain: ARERLEAALARLAELLPELAPEVRAMVERLLAAGVPVEDLADWVEAAVELAELDKERARELILEAIEEVEELLEEGDLDGARAVIRGYAGDALVEVEELE
B15: GBRAP_11_2821 (protein)
chain: KKEKLKELAEKAEELADEIKRLIESGNVTKEELEELAKKAEELLEFTKKYGDEDEVKLAKIALEEIKKAIEDPENLKEHLENALAAVRVLAGLFLLRYEE
B16: GBRAP_83_6913 (protein)
chain: MKEITVVAAGDRIEEAFEAAIDLHKEGVDHIILEVILRPEEFPTLEAGVRRLLEAGVNVDLRVLLVGATPEEAEALRDRLLAIAREAGRDVRVEVEVIEP
B17: GBRAP_160_4146 (protein)
chain: SEELKKLIKEIKEIAEEALKLIEGETPEEAKTIAKVAFGEMVMLVMSNEAVSEETEEKVGEIADEAIAYLDANPDLTVEEVKELLKEATEKIIEVLKEEI
B18: GBRAP_160_4476 (protein)
chain: MEKVKKAVEELRKDVEETLEENEDLSPKDLLLAVEVTIGSDLMEAVEEGTLSDEQEDIVIKAMDEIRELREESENMSVEEVKKRAREIIEKMAEEILKAA
B19: GBRAP_43_5793 (protein)
chain: MEEIVEGALDFARTALETPEITDETKARIVVDAVEFAADEGVLTEEELRELLELLAESVSDETALRALKEILEELKKLGAPESLLEVVEEAIEEVEERLA
B20: GBRAP_128_3172 (protein)
chain: SSEEIVEEVRRLLEEAITAGPEEARRIFREIVDLMLEADKETAERIAEVVIELLPKFTEEQLEILIDVIREMRPKADPYKQELLNEVAVAAGERILELEE
B21: GBRAP_52_6264 (protein)
chain: MREELKKKVEEIFELVKEGKLEEARKKAKELVESLNEEELELFIEEAAEYAKTIKKEEIEYAEKMVEIIAEEMEKAGVPEELVSLFEAEVYGALYEREKE
B22: GBRAP_160_4451 (protein)
chain: SERVEKLLKEVEETKEEAIELIEGQSHEERVVIVRGEFGALLYELSLDESVSDETEDEIAEVVDELVEYLEENPDLSEEEIKELIEEAAEKIKEIIKKNL
B23: GBRAP_128_3549 (protein)
chain: SLEEARERARRAVEEIAASDVERAREITARFAEELRGWSLEEVEAALEVVREEAGKLDAEKLEAVADVLLERRGEFSPEVQRLIADTAVELLNLAEEKEE
B24: GBRAP_11_2714 (protein)
chain: KKEKLEKFAKKAEKLAKKIKKLIKEGPKKEELKKLAKEAKKLAKEAKEAGLPESIVELVKLAAELLEEAIKDPKNAKEYLKNAAAALDVAAGQLLLEAEE
B25: GBRAP_184_5019 (protein)
chain: KVLEREIEINNVEEARAKLAEVRAEAAAEKAELILYVKIKNPTMEILKAIAEELARIMAEGAVPRLTVGIDADLTEEQIDFLVETLSAAGVRLVLAIPEE
B26: GBRAP_128_3191 (protein)
chain: SVEEVREWTRAAMERIKNSDEEEARAIAEELMERLKELSVEEVEAAVEVILEELPKLSKEHLEIIADVFRRKRPEFTPEKAELVAEVEVEALNLLEELEE
B27: GBRAP_166_4941 (protein)
chain: SLEEIMKKLEAAIKEFKEKIKELNEEERLERIIEIGELIKEAIEAGASDEKLVEAITRVLEAAKEAGFDPAVAAGIIANVADVSEELEDKIWEKVDELKK
B28: GBRAP_160_4828 (protein)
chain: SEALERLKKLIDEEAKRAIELIKGQTAEERAAIVAVEFGRVILELSEEPEVSDELEDKVAELADAAVATIRANPDLTYEEITALINDTAEKIKELIEKEL
B29: GBRAP_184_5360 (protein)
chain: DVEVVSIDAKTKEEAERKLKEARERIKKSGKPTTLYLFLENADLETFETAAKLLNEMKEEGLIERAIIDVLDERSEEEVDKMVKIADKYGVQLVVALKEE

Molecular target: GABARAP, O95166
Assay: median log2 fold change of GCK-ALFA target abundance (FLAG IP / Myc IP barcode read proportion) (log2 ratio); each designed protein is fused to an ALFA-tag nanobody in HEK293 cells to bring the named protein to FLAG-tagged glucokinase (GCK); Myc marks an untargeted standard; higher = target protein stabilised (more abundant)
Conditions: target protein: 3xFLAG-MCP-GCK-ALFA reporter; HEK293 landing pad (RPLP)
Procedure, shortened: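 Binders fused to an ALFA nanobody were recombined as a library into HEK293 landing-pad cells, which were induced with 2 μg mL^−1 doxycycline and then transfected to express a FLAG-tagged target and a Myc-tagged standard. After 48 h, circular RNA barcodes recovered by anti-FLAG and anti-Myc immunoprecipitation of lysates were reverse transcribed, amplified and sequenced. Each binder's target abundance is the median log2 ratio of FLAG to Myc barcode read proportions, from barcodes present at ≥10^−7 in both replicates, binders carrying ≥3 barcodes per replicate, a 10^−6 pseudocount and pooled replicates.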

Chain of GABARAP, O95166 (O95166 whole entry, the tested form may be a part): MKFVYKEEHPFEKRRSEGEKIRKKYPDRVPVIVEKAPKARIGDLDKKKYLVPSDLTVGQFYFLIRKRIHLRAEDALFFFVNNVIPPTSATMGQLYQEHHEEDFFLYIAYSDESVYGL

Binder	median log2 fold change
B1	0.528
B2	-0.0434
B3	0.091
B4	0.0848
B5	0.136
B6	0.27
B7	0.0492
B8	-0.00612
B9	0.0784
B10	-0.255
B11	0.00299
B12	0.169
B13	0.278
B14	0.0357
B15	0.0418
B16	0.133
B17	-0.0694
B18	-0.279
B19	-0.256
B20	0.24
B21	0.236
B22	-0.0716
B23	0.0777
B24	-0.0723
B25	0.0641
B26	0.181
B27	-0.134
B28	0.532
B29	0.16
